# Laboratory results from the supplement of paper PMC8728848.
# This is one part of the list.
# B1: Crocus Lectin (Crocus vernus), Q9FVA1 (protein)
# chain: MAKSLVLSSLLLALLLAAPLASLADNNVLLTGDVLHTDNQLSFESAAFVMQGDCNLVLYNEAGGFQSNTHGRGVGCTLRLNNFGQLEIHSANSNTPVWVSLRNGIPVRGDYAAVLGPDQHVTIYGPAIWSTPAPNRHERGATVSNIPRVRNVLFSSQVMSDNAQLATRDYSLVMRDDCNLALTKGSKTNIVWESGTSGRGQHCFMRLGHTGLIEISDDRLNTVWRSNTVGQEGDYVLILQINGQAVVYGPAVWSTASPARGGASAAL
# Tests used:
# Experiment in all cases: glycan array binding signal (z-score within array); higher = stronger binding
# Conditions in all cases: glycan notation: IUPAC condensed, linker removed
# [1] = target: GlcNAc(b1-4)[GlcNAc(b1-6)]GalNAc
# Procedure, shortened: (§1)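 Glycan array data came from 3228 arrays in the Consortium for Functional Glycomics database, and only arrays with an available protein sequence were kept. Glycan names were put into IUPAC-condensed notation, and columns mapping to the same glycan were averaged. The binding signal is a within-array Z-score, averaged across arrays of one protein sequence run at different concentrations or buffers and across linkers. A negative Z-score can be read as non-binding.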
# [2] = target: GlcNAc(b1-6)Gal(b1-4)GlcNAc
# Procedure, shortened: as §1
# GlcNAc(b1-6)GalNAc = target: GlcNAc(b1-6)GalNAc
# Procedure, shortened: as §1
# Kdn(a2-3)Gal(b1-3)GlcNAc = target: Kdn(a2-3)Gal(b1-3)GlcNAc
# Procedure, shortened: as §1
# Kdn(a2-3)Gal(b1-4)GlcNAc = target: Kdn(a2-3)Gal(b1-4)GlcNAc
# Procedure, shortened: as §1
# [3] = target: Man(a1-2)Man(a1-2)Man(a1-3)Man
# Procedure, shortened: as §1
# [4] = target: Man(a1-2)Man(a1-2)Man(a1-3)[Man(a1-2)Man(a1-3)[Man(a1-2)Man(a1-6)]Man(a1-6)]Man(b1-4)GlcNAc(b1-4)GlcNAc
# Procedure, shortened: as §1
# [5] = target: Man(a1-2)Man(a1-2)Man(a1-3)[Man(a1-2)Man(a1-6)[Man(a1-3)]Man(a1-6)]Man(b1-4)GlcNAc(b1-4)GlcNAc
# Procedure, shortened: as §1
# [6] = target: Man(a1-2)Man(a1-2)Man(a1-6)[Man(a1-3)]Man
# Procedure, shortened: as §1
# Man(a1-2)Man(a1-3)Man = target: Man(a1-2)Man(a1-3)Man
# Procedure, shortened: as §1
# [7] = target: Man(a1-2)Man(a1-3)[Man(a1-2)Man(a1-6)]Man
# Procedure, shortened: as §1
# [8] = target: Man(a1-2)Man(a1-3)[Man(a1-3)[Man(a1-6)]Man(a1-6)]Man(b1-4)GlcNAc(b1-4)GlcNAc
# Procedure, shortened: as §1
# [9] = target: Man(a1-2)Man(a1-3)[Man(a1-6)]Man(a1-6)[Man(a1-2)Man(a1-3)]Man(b1-4)GlcNAc(b1-4)GlcNAc
# Procedure, shortened: as §1
# Man(a1-3)[Man(a1-6)]Man = target: Man(a1-3)[Man(a1-6)]Man
# Procedure, shortened: as §1
# [10] = target: Man(a1-3)[Man(a1-6)]Man(a1-6)[Man(a1-3)]Man(b1-4)GlcNAc(b1-4)GlcNAc
# Procedure, shortened: as §1
# [11] = target: Man(a1-3)[Man(a1-6)]Man(b1-4)GlcNAc(b1-4)GlcNAc
# Procedure, shortened: as §1
# Man(b1-4)GlcNAc = target: Man(b1-4)GlcNAc
# Procedure, shortened: as §1
# Neu5Ac(a2-3)Gal = target: Neu5Ac(a2-3)Gal
# Procedure, shortened: as §1
# [12] = target: Neu5Ac(a2-3)Gal(b1-3)GalNAc
# Procedure, shortened: as §1
# [13] = target: Neu5Ac(a2-3)Gal(b1-3)GalNAc(b1-3)Gal(a1-4)Gal(b1-4)Glc
# Procedure, shortened: as §1
# [14] = target: Neu5Ac(a2-3)Gal(b1-3)GalNAc(b1-4)[Neu5Ac(a2-3)]Gal(b1-4)Glc
# Procedure, shortened: as §1
# [15] = target: Neu5Ac(a2-3)Gal(b1-3)GalNAc6S
# Procedure, shortened: as §1
# [16] = target: Neu5Ac(a2-3)Gal(b1-3)GlcNAc
# Procedure, shortened: as §1
# [17] = target: Neu5Ac(a2-3)Gal(b1-3)GlcNAc(b1-3)Gal(b1-4)GlcNAc
# Procedure, shortened: as §1
# [18] = target: Neu5Ac(a2-3)Gal(b1-3)GlcNAc6S
# Procedure, shortened: as §1
# [19] = target: Neu5Ac(a2-3)Gal(b1-3)[Fuc(a1-4)]GlcNAc
# Procedure, shortened: as §1
# [20] = target: Neu5Ac(a2-3)Gal(b1-3)[Fuc(a1-4)]GlcNAc(b1-3)Gal(b1-4)[Fuc(a1-3)]GlcNAc
# Procedure, shortened: as §1
# [21] = target: Neu5Ac(a2-3)Gal(b1-3)[Neu5Ac(a2-3)Gal(b1-4)]GlcNAc
# Procedure, shortened: as §1
# [22] = target: Neu5Ac(a2-3)Gal(b1-3)[Neu5Ac(a2-6)]GalNAc
# Procedure, shortened: as §1
# Neu5Ac(a2-3)Gal(b1-4)Glc = target: Neu5Ac(a2-3)Gal(b1-4)Glc
# Procedure, shortened: as §1
# [23] = target: Neu5Ac(a2-3)Gal(b1-4)GlcNAc
# Procedure, shortened: as §1
# [24] = target: Neu5Ac(a2-3)Gal(b1-4)GlcNAc(b1-3)Gal(b1-4)GlcNAc
# Procedure, shortened: as §1
# [25] = target: Neu5Ac(a2-3)Gal(b1-4)GlcNAc(b1-3)Gal(b1-4)GlcNAc(b1-3)Gal(b1-4)GlcNAc
# Procedure, shortened: as §1
# [26] = target: Neu5Ac(a2-3)Gal(b1-4)GlcNAc(b1-3)Gal(b1-4)[Fuc(a1-3)]GlcNAc
# Procedure, shortened: as §1
binder,measurement,setting,value
B1,glycan array binding signal (z-score),[1],-0.187
same,glycan array binding signal (z-score),[2],-0.191
same,glycan array binding signal (z-score),GlcNAc(b1-6)GalNAc,-0.175
same,glycan array binding signal (z-score),Kdn(a2-3)Gal(b1-3)GlcNAc,-0.174
same,glycan array binding signal (z-score),Kdn(a2-3)Gal(b1-4)GlcNAc,-0.161
same,glycan array binding signal (z-score),[3],-0.167
same,glycan array binding signal (z-score),[4],0.3
same,glycan array binding signal (z-score),[5],0.047
same,glycan array binding signal (z-score),[6],-0.192
same,glycan array binding signal (z-score),Man(a1-2)Man(a1-3)Man,-0.163
same,glycan array binding signal (z-score),[7],-0.163
same,glycan array binding signal (z-score),[8],3.76
same,glycan array binding signal (z-score),[9],1.89
same,glycan array binding signal (z-score),Man(a1-3)[Man(a1-6)]Man,7.87
same,glycan array binding signal (z-score),[10],7.04
same,glycan array binding signal (z-score),[11],6.62
same,glycan array binding signal (z-score),Man(b1-4)GlcNAc,-0.199
same,glycan array binding signal (z-score),Neu5Ac(a2-3)Gal,-0.184
same,glycan array binding signal (z-score),[12],-0.19
same,glycan array binding signal (z-score),[13],-0.19
same,glycan array binding signal (z-score),[14],-0.154
same,glycan array binding signal (z-score),[15],-0.192
same,glycan array binding signal (z-score),[16],-0.194
same,glycan array binding signal (z-score),[17],-0.186
same,glycan array binding signal (z-score),[18],-0.182
same,glycan array binding signal (z-score),[19],-0.169
same,glycan array binding signal (z-score),[20],-0.167
same,glycan array binding signal (z-score),[21],-0.169
same,glycan array binding signal (z-score),[22],-0.169
same,glycan array binding signal (z-score),Neu5Ac(a2-3)Gal(b1-4)Glc,-0.188
same,glycan array binding signal (z-score),[23],-0.16
same,glycan array binding signal (z-score),[24],-0.166
same,glycan array binding signal (z-score),[25],-0.202
same,glycan array binding signal (z-score),[26],-0.137
